Screen size: about 310,000 compounds; about 2,200 (0.71%) showed an effect of 50% or more. Effects have a minus sign here. Some of the results follow. Where a SMILES comes first, the peptide text is derived from it. [ ]: non-standard residue; d: D form. Inp = O=C(O)C1CCNCC1
Biological target: human ether-à-go-go-related gene (hERG) potassium channel (human, UniProt Q12809)
Experiment: primary screen, population patch clamp on CHO cells stably expressing hERG

Chain of human ether-à-go-go-related gene (hERG) potassium channel (Q12809 whole entry, looked up): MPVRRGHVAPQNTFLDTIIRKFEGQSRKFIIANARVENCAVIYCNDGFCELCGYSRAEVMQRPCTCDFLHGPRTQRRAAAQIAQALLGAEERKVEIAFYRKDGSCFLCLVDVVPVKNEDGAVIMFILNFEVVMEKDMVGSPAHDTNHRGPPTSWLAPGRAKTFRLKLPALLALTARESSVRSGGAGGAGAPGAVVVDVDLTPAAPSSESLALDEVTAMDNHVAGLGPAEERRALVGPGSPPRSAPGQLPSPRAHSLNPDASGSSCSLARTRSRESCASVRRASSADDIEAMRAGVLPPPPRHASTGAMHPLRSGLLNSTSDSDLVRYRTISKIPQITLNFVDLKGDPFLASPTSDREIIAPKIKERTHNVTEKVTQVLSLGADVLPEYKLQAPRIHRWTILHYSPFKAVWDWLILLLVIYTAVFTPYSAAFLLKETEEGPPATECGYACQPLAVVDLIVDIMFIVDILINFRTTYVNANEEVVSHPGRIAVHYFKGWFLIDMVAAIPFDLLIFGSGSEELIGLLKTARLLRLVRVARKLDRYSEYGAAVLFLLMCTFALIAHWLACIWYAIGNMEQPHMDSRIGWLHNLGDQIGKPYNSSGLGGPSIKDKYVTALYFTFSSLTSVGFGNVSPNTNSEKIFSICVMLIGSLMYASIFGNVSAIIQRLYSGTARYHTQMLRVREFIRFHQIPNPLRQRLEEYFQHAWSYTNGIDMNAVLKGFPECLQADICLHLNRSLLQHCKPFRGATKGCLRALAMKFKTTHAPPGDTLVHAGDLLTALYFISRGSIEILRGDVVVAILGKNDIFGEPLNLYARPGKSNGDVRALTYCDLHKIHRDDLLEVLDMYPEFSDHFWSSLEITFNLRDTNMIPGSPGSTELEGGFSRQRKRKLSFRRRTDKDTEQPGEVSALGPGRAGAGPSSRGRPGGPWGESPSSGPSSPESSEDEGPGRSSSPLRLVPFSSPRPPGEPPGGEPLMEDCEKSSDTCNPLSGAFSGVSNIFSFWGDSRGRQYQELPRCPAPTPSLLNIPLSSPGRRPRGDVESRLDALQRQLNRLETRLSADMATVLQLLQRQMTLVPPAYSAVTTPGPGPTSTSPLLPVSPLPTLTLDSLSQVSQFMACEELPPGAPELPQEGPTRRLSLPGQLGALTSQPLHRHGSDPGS

SMILES	hERG current change (%, negative = inhibition) at 1uM [%]
O=C(Nc1ccc(Br)cc1F)C1CC(=O)N(C2CCCCC2)C1 (centres unmarked)	18.3
CCOc1c(OC)cccc1C(=O)NCC1(c2ccccc2)CCCC1	12.2
CC1(C)C(=S)N(Cc2ccccc2)c2ccccc21	15.8
CCCCN(CCCC)C(=S)NC(=O)C(C)(C)C	2.97
CCN(CC)C(=O)C(C)OC(=O)COc1ccc(Cl)cc1Cl (centres unmarked)	7.44
CCCCCCCCCCCCCCCC[n+]1ccc(/C=N/O)cc1.[Br-]	12.2
Cc1nnsc1C(=O)NNS(=O)(=O)c1cc(C(F)(F)F)cc(C(F)(F)F)c1	10.7
CC(C)C(NC(=O)c1ccco1)C(=O)NCC(c1ccco1)N1CCCCC1 (centres unmarked)	20.8
CC(=O)C1=C(NC(=O)c2ccccc2F)C[C@@H]2[C@H]1C2(C)C	14
O=C(O)C(=O)O.O=S(=O)(c1ccc(Cl)cc1)N1CCC(N2CCOCC2)CC1	2.41
CCOc1ccc(-c2nnn(CC(=O)NCc3ccc(OC)cc3)n2)cc1OCC	5.14
O=C(CSc1nnc(COc2ccc(Cl)cc2)o1)N1c2ccccc2CCc2ccccc21	5.41
CN1C(=O)OC(C)(C)C1=O	4.75
COCC(C)N1CCC(n2nccc2NC(=O)c2ccccc2Cl)CC1 (centres unmarked)	-1.49
CC(=O)c1ccc(N2CCN(C(=O)Nc3ccc(F)cc3F)CC2)cc1	9.27
CC(C(=O)Nc1cccnc1)C1Sc2ccccc2NC1=O (centres unmarked)	15.3
CC(=O)NCCSc1ccc(S(=O)(=O)N2CCCC2)cn1	13
COc1ccccc1CN(C)C(=O)c1cc(-c2cccs2)nc2ccccc12	12.2
CCCc1nc2c(s1)CCc1onc(-c3ccc(Br)cc3)c1-2	12
Cc1ccc(S(=O)(=O)N2CCCCCC2)cc1C(=O)Nc1cccnc1	-2.23
Cc1cc(=O)oc2c(CN3CCN(C)CC3)c(O)c(Cl)cc12	-1.87
COc1ccnc(Oc2ccc(F)cc2)c1C#N	12.7
CCNC(=S)N1C2CCC1CC(NC(=O)Nc1ccc(C(=O)OCC)cc1)C2 (centres unmarked)	13.6

SMILES	hERG current change (%, negative = inhibition) at 1uM [%]
Cc1cccc(C(=O)N/N=C2/SCC(=O)N2Cc2ccccc2)c1	7.17
CCOC(=O)c1c(S(=O)(=O)NCC(=O)Nc2cccc(C)c2C)c(C)n(C)c1C	18.6
O=C(COc1ccc(Br)cc1)NCCCNC(=O)c1ccncc1	-15.1
CCN(CCCNC(=O)c1ccc2c(c1)NC(=O)CN2C)c1cccc(C)c1	9.25
COc1ccc(CNC(=O)CCc2cc(OC)c(OC)c(OC)c2)cc1	12.4
Clc1ccc(Cc2noc(-c3cccs3)n2)cc1	8.24
COc1ccc(OCCCn2c(=O)oc3ccccc32)cc1	8.8
Brc1ccccc1OCCCCCN1CCOCC1.O=C(O)C(=O)O	-1.12
CCCCCCC/C=N/Nc1nnc(Cc2ccccc2)c(=O)[nH]1	16.7
COc1cc(NC(=O)CCCNC(=O)Cn2cnc3sc(C)c(C)c3c2=O)cc(OC)c1OC	17.7
CC1=CCC2C(=O)N(c3nc(C)cc(C)n3)C(=O)C2C1 (centres unmarked)	16.9
O=C(CSc1nnc2ccccn12)Nc1ccc(S(=O)(=O)N2CCOCC2)cc1	5.43
O=C(O)c1cc(N2C(=O)CCC2=O)ccc1Cl	7.77
O=C(c1cccc(F)c1)N1CCN(C(=O)c2nn3cccnc3c2Cl)CC1	5.23
CCNc1nc(NCC)nc(N/N=C/c2ccc(N(C)C)cc2)n1	11.3
Cc1cnc(NC(=O)CSc2nnc(C)n2N)s1	-3.86
CCn1c(=O)n(CC)c2cc(S(=O)(=O)NCCOc3ccccc3)c(C)cc21	12.5
NC(=O)Nc1cc(Cl)ccc1Cl	10.4
CCC(=O)Nc1cc(C(C)C)c(O)cc1C	11.5
COC(=O)C1=C(c2ccc(F)cc2OCc2ccccc2)C[C@@H]2CC[C@H]1N2C(=O)NCc1ccccc1	8.07
c1ccc(Cn2c(-c3ccccc3)nc3nc4ccccc4nc32)cc1	0.307
C/C(=N\N=C1\NC(=O)C(CC(=O)Nc2ccc(C)c(Cl)c2)S1)C(C)(C)C (centres unmarked)	11.5
CCN(CC)S(=O)(=O)c1cccc(NC(=O)COc2ccc(F)cc2Br)c1	6.99

SMILES	hERG current change (%, negative = inhibition) at 1uM [%]
CCc1ccc(C(C(=O)NC(C)(C)CC)N(Cc2ccco2)C(=O)Cn2nnc3ccccc32)cc1 (centres unmarked)	13.5
Cc1ccc(CS(=O)(=O)CCC(=O)NCCC(C)C)cc1	6.06
COc1ccc(-c2nnc(SC)o2)c(OC)c1	16.3
O=C1NC(=O)C(=C2CCCCCC2)S1	5.85
O=C1CS/C(=N/N=C/c2ccccc2)N1Cc1ccco1	12.1
CC(C)c1ccc(NC(=O)COC(=O)c2c[nH]c(=O)[nH]c2=O)cc1	10.1
Clc1ccc(CCNc2ncnc3c2nnn3Cc2ccccc2)cc1	11.9
Cc1cccc(C)c1N1CCN(c2c(C)cccc2C)CC1	16.7
COc1ccccc1CNC(=O)C(C)NS(=O)(=O)c1ccc(Br)cc1 (centres unmarked)	11.6
O=c1cc(N2CCCCC2)c(-c2ccccc2)nn1Cc1ccc(F)cc1	3.63
CCOC(=O)C1=C(c2ccccc2)N=c2s/c(=C\c3ccco3)c(=O)n2C1c1cccs1 (centres unmarked)	25.7
O=C(NCCN=C1NS(=O)(=O)c2ccccc21)c1ccco1	5.21
Cc1ccccc1C(=O)NNC(=S)NC(=O)c1cccnc1	13.6
Cc1cc(C)c2c(C)[nH]nc2n1	17.5
CN1CCCC1CCNc1ccc2oc3ccccc3c(=O)c2c1 (centres unmarked)	8.43
CCCC(C(=O)NC1CCCCC1)N(Cc1ccco1)C(=O)CNS(=O)(=O)c1ccccc1 (centres unmarked)	-1.69
C/C(=N\NC(=O)c1ccc(F)cc1)c1cccc(NC(=O)c2ccco2)c1	4.72
CC1=C(C(N)=O)C(c2ccccc2)n2nc(-c3ccncc3)nc2N1 (centres unmarked)	11.1
CCC12CC3CC(C1)CC(C(=O)O)(C3)C2	9.41
N[C@@H](Cc1ccccc1)C(=O)N1CCC(C(=O)NCC(=O)NCC(=O)O)CC1 (H-F[Inp]GG-OH)	16.4
Cc1ccnc(N2CCN(c3cc(C)c(C#N)c4nc5ccccc5n34)CC2)c1	-0.102
COC(=O)Cc1ccc(NC(=S)NNC(=O)C2CC2)cc1	12.6
Cc1cc(=O)c2ccccc2s1	3.09

SMILES	hERG current change (%, negative = inhibition) at 1uM [%]
Cc1nn(-c2ccccc2)c(N2CCCCC2)c1/C=N/O	4.74
O=C(CSc1n[nH]c(=O)[nH]c1=O)N/N=C/C=C/c1ccccc1	16.1
O=C(CN1C(=O)S/C(=C\c2ccccn2)C1=O)Nc1ccccc1	13.9
COc1cccc(N=Cc2c[nH][nH]c2=O)c1	13
Cc1cccc(OCCC(=O)NNC(=O)c2ccoc2C)c1	6.36
CN1CCN(c2cc(N3CCN(C(=O)c4ccco4)CC3)c3c4c(onc24)-c2ccccc2C3=O)CC1	31.3
CCc1nccn1Cc1cc(C=O)ccc1OC.Cl	5.59
CC(=O)c1ccc(OC(C)C(=O)OCC(=O)NCCc2ccccc2)cc1 (centres unmarked)	6.99
CN(C)CCN(Cc1ccccc1)S(=O)(=O)c1ccc2c(c1)n(C)c(=O)c(=O)n2C	10.6
Cn1c(=O)c2c(SCC(=O)Nc3nccs3)nc(C3CC3)nc2n(C)c1=O	12.1
CCc1ccccc1NC(=O)NC1CCCCCCC1	17.7
O=C(c1ccc(Cl)cc1)C1CCCN(C(=O)c2csnn2)C1 (centres unmarked)	9.03
COc1cccc(CNC(=O)CCC2CCCN(C(=O)c3cccc4c(C)c(C)[nH]c34)C2)c1 (centres unmarked)	11.6
CSCC[C@H](NC(=O)c1ccc2ccccc2c1)C(=O)N1CCC2(CC1)NCCc1[nH]cnc12	5.8
CCCSCCCNC(=O)Cn1cc2c(n1)CCC(C)C2 (centres unmarked)	-2.86
CC(C)(C)c1ccc(-c2nc3[nH]c(=O)cc(NC(=O)c4ccco4)n3n2)cc1	15.3
C/C(CC(=O)Nc1cccc(Cl)c1Cl)=N\NC(=O)c1ccccc1Br	8.27
O=C(NCCc1cccc(Cl)c1)c1cc([N+](=O)[O-])ccc1Cl	-5.97
COc1ccc(/C=N/n2cnnc2SCc2ccccc2)cc1	4.97
CCN1CCN(c2nc3c(C)cccn3c(=O)c2/C=C(\C#N)C(=O)NC)CC1	6.48
COCC(C)n1c(C)cc(C(=O)COc2ccc(S(=O)(=O)N3CCOCC3)cc2Cl)c1C (centres unmarked)	4.48
COc1ccc(-c2c(NC(=O)c3ccco3)oc3ccc(Cl)cc3c2=O)cc1	10.6
Cc1ccc2c(Cl)c(C(=O)NCC3CCCO3)sc2c1 (centres unmarked)	0.795

— article PMC4336329 (PLoS ONE, 2015)
